Assay results reported in PubChem BioAssay AID1721 (National Center for Advancing Translational Sciences (NCATS), 2009).
The campaign covered roughly 290,000 compounds. About 1,100 (0.38%) were called active. Inconclusive means that the source gave no clear call. Such entries were picked first, then a sample of the others. The call rests on the fitted dose curve; in most records, active means well fitted inhibition curve with a large enough effect; inconclusive means small, poorly fitted or top-dose-only effect, or another doubt; inactive means no such curve, though single readings can be large or run the other way. A potency beside an inconclusive call is a rough fit, not a confirmed value.

molecular target: Pyruvate kinase (Leishmania mexicana) (UniProt Q27686); experiment: qHTS Assay for Inhibitors of Leishmania Mexicana Pyruvate Kinase (LmPK); conditions: purified LmPK, Kinase-Glo ATP luminescence, 1 h; series mostly up to 57.5 µM
UniProt Q27686, sequence (Q27686 whole entry, looked up): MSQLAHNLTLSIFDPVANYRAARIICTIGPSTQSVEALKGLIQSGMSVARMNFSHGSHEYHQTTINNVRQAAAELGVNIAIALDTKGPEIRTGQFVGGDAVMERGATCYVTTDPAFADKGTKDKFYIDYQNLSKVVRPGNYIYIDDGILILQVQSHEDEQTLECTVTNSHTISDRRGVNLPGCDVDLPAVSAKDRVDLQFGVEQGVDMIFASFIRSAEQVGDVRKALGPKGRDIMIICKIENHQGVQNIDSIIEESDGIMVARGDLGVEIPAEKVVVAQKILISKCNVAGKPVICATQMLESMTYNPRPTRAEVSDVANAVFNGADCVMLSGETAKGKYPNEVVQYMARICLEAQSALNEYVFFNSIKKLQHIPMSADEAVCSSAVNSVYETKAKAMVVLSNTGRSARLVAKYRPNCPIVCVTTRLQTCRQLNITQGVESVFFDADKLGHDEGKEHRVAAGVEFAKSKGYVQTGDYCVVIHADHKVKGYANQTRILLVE
How it was run: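 Purified LmPK (0.1 nM) with 0.5 mM PEP and 0.1 mM ADP in imidazole buffer pH 7.2 with MgCl2/KCl, 1 h at room temperature. ATP formed was read by luciferase luminescence and normalized to no-enzyme and uninhibited controls.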
Potency means the concentration at half of the fitted maximal effect; tags describe the fitted curve by direction and shape.

**Q.** How did the Potency turn out when `CNc1c(C(=O)O)ccc2c1C(=O)c1ccccc1C2=O` was run?
**A.** inconclusive: 28.2 µM [falling, single point]

**Q.** For `Cc1ccc(C(=O)Nc2nnc(-c3ccco3)o2)cc1`, which Potency is on record?
**A.** inconclusive: 25.1 µM [falling, partial curve]

**Q.** `CCN(CC)S(=O)(=O)c1ccc(N2CCOCC2)c(NC(=O)c2cccc3ccccc23)c1` was tested. Which Potency did it give?
**A.** inactive

**Q.** For `CSc1ccc(/C=C/c2ccc3cccc(O)c3n2)cc1`, which Potency is on record?
**A.** inconclusive: 20 µM [falling, single point]

**Q.** How did the Potency turn out when `O=[N+]([O-])c1cccc(-c2cc(-c3cc(Br)ccc3O)[nH]n2)c1` was run?
**A.** inactive

**Q.** `COc1ccc(Cl)cc1NC(=O)CSc1nncn1-c1cccnc1` was tested. Which Potency did it give?
**A.** inactive

**Q.** How did the Potency turn out when `CCCCCNC(=O)c1ccc2c(=O)[nH]c3c(C(=O)NCC4CCCO4)sc(=S)n3c2c1` (configuration not stated) was run?
**A.** inconclusive: 22.4 µM [falling, single point]

**Q.** Which Potency does the source give for `CCOc1cc(C(=O)N=c2sccn2C)ccc1OC(F)F` here?
**A.** inactive

**Q.** `CCc1ccc(S(=O)(=O)Nc2cc(SCC(=O)O)c(O)c3ccccc23)cc1` was tested. Which Potency did it give?
**A.** inconclusive: 35.5 µM [falling, single point]

**Q.** Which Potency does the source give for `CC(=O)CSc1nnc(-c2ccc3c(c2)OCO3)o1` here?
**A.** inconclusive: 31.6 µM [falling, single point]

**Q.** `O=C(Cn1ncc2c3ccccc3n(Cc3ccccc3)c2c1=O)N1CCC2(CC1)OCCO2` was tested. Which Potency did it give?
**A.** inactive

**Q.** How did the Potency turn out when `C/C(=N\NC(=O)c1ccoc1C)c1ccccc1` was run?
**A.** active: 14.1 µM

**Q.** How did the Potency turn out when `CC(=O)O[C@H]1CCC2C3CCC4=CC(=O)CCC4=C3C=C[C@@]21C` (some centres not stated) was run?
**A.** inconclusive: 31.6 µM [falling, single point]

**Q.** Which Potency does the source give for `COc1cccc(/C=N/N2CCOCC2)c1O` here?
**A.** inconclusive: 22.4 µM [falling, partial curve]

**Q.** Which Potency does the source give for `COc1ccc(Cl)cc1C(=O)Nc1ccccc1N1CCCCC1` here?
**A.** inconclusive: 3.55 µM [falling, single point]

**Q.** `O=C(/C=C/Nc1ccccc1O)c1ccco1` was tested. Which Potency did it give?
**A.** inconclusive: 28.2 µM [falling, single point]

**Q.** Which Potency does the source give for `CC1=NN(c2ccc([N+](=O)[O-])cc2)C(=O)/C1=C\N(C)C` here?
**A.** active: 15.8 µM

**Q.** Which Potency does the source give for `O=C(O)c1cnn2c1C(=O)N(Cc1cccs1)CC2` here?
**A.** inactive

**Q.** `Cc1ccc(C)c(S(=O)(=O)Nc2ccc(O)c3ccccc23)c1` was tested. Which Potency did it give?
**A.** inconclusive: 14.1 µM [falling, partial curve, poor fit]

**Q.** How did the Potency turn out when `Cc1ccc(/C=N/Nc2ccc3ccccc3n2)o1` was run?
**A.** inconclusive: 35.5 µM [falling, single point]

**Q.** For `CCCCc1n[nH]c(=S)n1Cc1ccc(C)cc1`, which Potency is on record?
**A.** inconclusive: 35.5 µM [falling, single point]

**Q.** For `Oc1ccc(N=Nc2nccs2)c(O)c1`, which Potency is on record?
**A.** active: 25.1 µM

**Q.** Which Potency does the source give for `O=C(c1ccco1)n1c(=S)nc2ccccn21` here?
**A.** active: 14.1 µM

**Q.** With `COC(=O)c1ccc(CS(=O)(=O)c2ccc(F)cc2)o1` as the compound, how does the Potency read?
**A.** inactive

**Q.** How did the Potency turn out when `CN(C)c1ccc(/C=N/N2CCN(c3ccccn3)CC2)cc1` was run?
**A.** inconclusive: 12.6 µM [falling, partial curve]

**Q.** Which Potency does the source give for `Cc1ccc(NC(=O)c2ccccc2)s1` here?
**A.** inconclusive: 15.8 µM [falling, partial curve]

**Q.** With `CCc1ccc(/C=N/NC(=O)c2ccccn2)cc1` as the compound, how does the Potency read?
**A.** active: 12.6 µM

**Q.** How did the Potency turn out when `OCC[n+]1c2ccccc2nc2ccc(N3CCOCC3)cc21` was run?
**A.** active: 15.8 µM

**Q.** `C=CCNC(=S)N1CCN(CCN=Cc2c(C)[nH]n(-c3ccc([N+](=O)[O-])cc3)c2=O)CC1` was tested. Which Potency did it give?
**A.** inconclusive: 22.4 µM [falling, single point]

**Q.** How did the Potency turn out when `Cc1cnc(C(=O)Nc2ccccc2F)cn1` was run?
**A.** active: 17.8 µM

**Q.** `COc1cc2cc(C(=O)Nc3ccccc3)c(N)nc2cc1OC` was tested. Which Potency did it give?
**A.** inactive

**Q.** Which Potency does the source give for `COc1ccc(-c2nnc(NC(=O)c3cc(C)on3)s2)cc1` here?
**A.** inconclusive: 15.8 µM [falling, partial curve]

**Q.** `COC(=O)c1cnn(-c2ccccc2)c1/C=N/NC(=S)Nc1ccc(Cl)cc1` was tested. Which Potency did it give?
**A.** inactive

**Q.** `CCN(CC)C(=O)c1ccc(NC(=O)c2cccc(F)c2)cc1` was tested. Which Potency did it give?
**A.** active: 28.2 µM

**Q.** With `O=C1NC(c2ccccc2Cl)=N/C1=C/c1ccco1` as the compound, how does the Potency read?
**A.** inconclusive: 14.1 µM [falling, partial curve]

**Q.** How did the Potency turn out when `N/C(=N\OC(=O)C1CCCCC1)c1ccccn1` was run?
**A.** active: 14.1 µM

**Q.** With `CN(C)c1ccc(Nc2nc(N)c3ccccc3n2)cc1` as the compound, how does the Potency read?
**A.** inconclusive: 25.1 µM [falling, partial curve]

**Q.** `Cc1nc(-c2ccc(NC(=O)c3cccs3)cc2)cs1` was tested. Which Potency did it give?
**A.** inconclusive: 3.55 µM [falling, full curve]

**Q.** How did the Potency turn out when `CCc1nn2cc(-c3ccccc3)nc2s1` was run?
**A.** active: 11.2 µM

**Q.** With `Cc1ccc(-n2c(-c3ccc(Cl)cc3Cl)n[nH]c2=S)cc1` as the compound, how does the Potency read?
**A.** inconclusive: 31.6 µM [falling, single point]

**Q.** For `S=c1[nH]nc(-c2ccco2)n1C1CCCCC1`, which Potency is on record?
**A.** active: 25.1 µM

**Q.** With `COc1ccc(N=Cc2c(O)c3ccccc3oc2=O)cc1` as the compound, how does the Potency read?
**A.** active: 15.8 µM

**Q.** How did the Potency turn out when `CCN(CC)c1ccc(/C=C/C(=O)C2C(=O)C=C(C)OC2=O)cc1` (configuration not stated) was run?
**A.** inconclusive: 25.1 µM [falling, single point]

**Q.** How did the Potency turn out when `CN(C)c1ccc(/C=N/N2C(=O)c3ccccc3C2=O)cc1` was run?
**A.** inconclusive: 14.1 µM [falling, partial curve]

**Q.** `CCOc1ccc(-n2c(CCc3ccccc3)n[nH]c2=S)cc1` was tested. Which Potency did it give?
**A.** inconclusive: 7.08 µM [falling, partial curve]

**Q.** For `CN1\C(=C/C=C/C=C/C=[N+](C)C)C(C)(C)c2ccccc21`, which Potency is on record?
**A.** active: 10 µM

**Q.** Which Potency does the source give for `O=C(/C=C/Nc1ccccc1C(=O)O)c1cccs1` here?
**A.** inconclusive: 25.1 µM [falling, partial curve]

**Q.** With `COc1ccc(N2CCN(C3CCCN(Cc4cccc(C(C)=O)c4)C3)CC2)cc1` (configuration not stated) as the compound, how does the Potency read?
**A.** inactive

**Q.** For `Cc1cnc(NC(=O)C2COc3ccccc3O2)s1` (configuration not stated), which Potency is on record?
**A.** inconclusive: 25.1 µM [falling, single point]

**Q.** With `CS(=O)(=O)N(CC(=O)NN=C1CCCCCC1)c1ccc(Oc2ccccc2)cc1` as the compound, how does the Potency read?
**A.** inactive

**Q.** With `Cn1cccc1/C=N/n1c(-c2ccc(Cl)cc2Cl)n[nH]c1=S` as the compound, how does the Potency read?
**A.** inconclusive: 31.6 µM [falling, single point]

**Q.** For `O=c1c2c(nc3cc(-c4ccccc4)[nH]n13)CCC2`, which Potency is on record?
**A.** inconclusive: 12.6 µM [falling, partial curve]
